Measured values taken from article doi:10.1101/419051 (bioRxiv, 2018).

Biological target: ubiquitin (UniProt P0CG48 partial chain)
Assay: cryo-EM structure

B1: Rpt5 (enzyme)
chain: not shown
B1: binds.
